The source of these data is paper PMC6128262 (Analytical chemistry, 2018).

Like-named read-outs stand apart in the source and are kept apart here.

Experiment [1] has as its target T1, HpMTAN-D198N (Helicobacter pylori, UniProt Q9ZMY2, D198N). To be noted: for Ki: read-out: Ki value (displacement of AdoHcy-TAMRA), 11.3 nM AdoHcy-TAMRA, 50 nM HpMTAN-D198N.
For experiment [2], the target named is T1, HpMTAN-D198N. Description: biochemical.

As to `Nc1ncnc2c1ncn2[C@@H]1O[C@H](COP(=O)(O)OP(=O)(O)OP(=O)(O)O)[C@@H](O)[C@H]1O` [ATP], the “displacement of AdoHcy-TAMRA from HpMTAN-D198N” value in experiment [1] (result in words) is “unable to displace AdoHcy-TAMRA”.
For the compound `C[S+](CC[C@H](N)C(=O)[O-])C[C@H]1O[C@@H](n2cnc3c(N)ncnc32)[C@H](O)[C@@H]1O` (some centres unmarked) [AdoMet, S-Adenosylmethionine], the inhibition constant Ki (usually the dissociation constant of the complex between target and ligand, obtained from inhibition or displacement) in experiment [2] amounted to 0.989 ± 0.16 µM.
As for 5′-methylthioadenosine [MTA], in experiment [1], the Ki was 0.0242 ± 0.0012 µM.
Regarding `Nc1ncnc2c1ncn2[C@@H]1O[C@H](COP(=O)(O)O)[C@@H](O)[C@H]1O` [AMP], the Ki in experiment [1] was found to be 933 ± 66 µM.
Take `Nc1ncnc2c1ncn2[C@@H]1O[C@H](COP(=O)(O)OP(=O)(O)O)[C@@H](O)[C@H]1O` [ADP]: in experiment [1], the Ki stood at 15.2 ± 1.3 µM.
